# Results: PubChem BioAssay AID485344 (National Center for Advancing Translational Sciences (NCATS), 2010)
# Screen size: about 340,000 compounds; about 6,900 (2%) were called active. Cut-off read from the data, not from the text of the source: active = inhibition above about 30%; inactive = below that, where a call was filed. The list shows a part of the results, in another mix than the full data. Entries without a call were filed so in the source.
# Target: D(2) dopamine receptor (Homo sapiens) (UniProt P14416)
# Assay: HTS Assay for Allosteric Antagonists of the Human D2 Dopamine Receptor: Primary Screen for Antagonists; note: 0% is about no effect
# Details: HEK293 TREx D2 cells, calcium flux, dopamine EC80; at 10 µM; stronger effect = higher value
# How it was run: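 Antagonism is scored as inhibition of an EC80 dopamine-evoked calcium signal in a force-coupled, tetracycline-inducible HEK293 T-REx D2 line, with compound present 180 s before agonist.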
# Sequence of UniProt P14416 (P14416 whole entry, looked up): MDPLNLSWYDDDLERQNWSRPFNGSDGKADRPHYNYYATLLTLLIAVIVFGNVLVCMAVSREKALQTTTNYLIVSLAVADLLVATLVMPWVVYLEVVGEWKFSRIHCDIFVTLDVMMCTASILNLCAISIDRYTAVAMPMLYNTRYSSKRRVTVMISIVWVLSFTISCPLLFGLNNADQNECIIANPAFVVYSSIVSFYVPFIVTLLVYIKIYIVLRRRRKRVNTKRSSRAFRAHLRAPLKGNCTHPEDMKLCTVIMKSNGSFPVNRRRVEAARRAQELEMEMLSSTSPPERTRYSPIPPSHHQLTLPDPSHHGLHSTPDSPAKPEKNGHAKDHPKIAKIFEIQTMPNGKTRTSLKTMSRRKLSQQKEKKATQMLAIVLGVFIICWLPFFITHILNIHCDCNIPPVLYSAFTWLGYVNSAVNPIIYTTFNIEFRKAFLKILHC
row,SMILES,inhibition
1,COc1cc(OC)cc(C(=O)Nc2ccc(-c3nc4cc(C(C)C)ccc4o3)cc2)c1,4.17%
2,Cc1ccc(C)c(N2CCN(S(=O)(=O)c3ccc(-c4coc(C)n4)cc3)CC2)c1,8.19%
3,CCOC(=O)C(CC)n1nc(C)c2c(C)n(-c3ccc(C)cc3)nc2c1=O (stereo not given),5.69%
4,CCCCN(CCCNC(=O)c1cc(Nc2ccc(OC)cc2)nc2ccccc12)Cc1ccccc1,6.5%
5,Cc1ccc(NC(=O)c2ccc(Cl)cc2Cl)c(C(=O)c2ccccc2)c1,-5.7%
6,Cc1ccc(Cn2c(C)c(CNCC(C)c3ccccc3)c(C(=O)O)c2C)cc1 (stereo not given),0.268%
7,CCOc1ccc(-c2cc3c(=O)n(Cc4nc(-c5ccccc5OCC)oc4C)ccn3n2)cc1Cl,14.1%
8,O=S(=O)(NCc1ccc(Cl)cc1)c1ccc2[nH]c3c(c2c1)CCCC3,6.15%
9,O=C(NCCSc1c[nH]c2ccccc12)C1CC1,active: 36.4%
10,CCC(CC)C(=O)Nc1ccccc1SCc1cc(=O)c2cccc(C)c2[nH]1,-6.65%
11,COCCCNC(=O)C1CCC(Cn2c(=O)c3sccc3n(C)c2=O)CC1 (stereo not given),2.3%
12,CCOC(=O)C1CCN(c2nc3c(S(=O)(=O)c4ccccc4)nnn3c3ccc(Cl)cc23)CC1,-0.823%
13,CCOC(=O)c1ccc2nc(C)cc(Nc3ccc(OC(C)C)cc3)c2c1,3.89%
14,CCCCc1ccc(-n2nc3cc(Cl)c(NC(=O)c4ccc(OC)cc4)cc3n2)cc1,13.5%
15,Cc1ccc(-n2cnc3cc(C(=O)NCc4ccc(F)cc4)ccc32)c(C)c1,16.5%
16,CC(Sc1nc2c(c(=O)[nH]1)CCCC2)C(=O)Nc1cc(C(F)(F)F)ccc1Cl (stereo not given),-19.2%
17,Cc1cccc(C(=O)NCCc2nc3ccccc3n2Cc2ccc(Cl)cc2)c1,-6.29%
18,Cc1ccc(OC(C)C(=O)N2CCN(CCc3ccncc3)CC2)cc1C (stereo not given),15.6%
19,CCOC(=O)c1cccc(NS(=O)(=O)c2ccc3[nH]c4c(c3c2)CCCC4)c1,-6.41%
20,O=c1c2oc3ccccc3c2n(Cc2ccc(F)cc2)c(=O)n1Cc1ccco1,4.63%
21,CCCCn1c(=NC(=O)c2c(-c3c(F)cccc3Cl)noc2C)c(C(=O)OCC)cc2c(=O)n3ccccc3nc21,-7.79%
22,Cc1ccc(-c2noc(-c3ccc(NCc4cccnc4)c([N+](=O)[O-])c3)n2)cc1,-4.51%
23,O=C(NCc1cccc(F)c1)c1ccc(CN2CC(=O)N3CCCCC3C2=O)cc1 (stereo not given),-4.67%
24,O=c1c(=O)n(-c2ccccc2)ccn1Cc1c(F)cccc1Cl,19.9%

row,SMILES,inhibition
1,COc1cc(CNCCSc2nnnn2C)ccc1OCc1ccc(C)cc1,5.37%
2,CCSc1ncc(Cl)c(C(=O)N(Cc2ccccc2)c2ccc(OC)cc2)n1,-1.26%
3,CCOc1cccc(NC(=O)c2sc3nc(-c4ccc(F)cc4)ccc3c2N)c1,-0.779%
4,O=C(COCc1cc(-c2cccs2)on1)N1CCN(c2ccc(F)cc2)CC1,11.6%
5,O=C(c1ccccc1)N1CCCC(c2nc3c(nnn3Cc3ccc(F)cc3F)c(=O)[nH]2)C1 (stereo not given),1.62%
6,Cc1nc2cccnc2n1C1CCN(C(=O)Nc2ccccc2)CC1,4.1%
7,Cc1cc(C)cc(N2CC(c3nnc(NC(=O)c4ccco4)s3)CC2=O)c1 (stereo not given),5.99%
8,COc1cc(C(=O)Nc2ccc(-n3c(C)nc4ccccc4c3=O)cc2)cc(OC)c1OC,11.2%
9,Cc1ccc(SCC(=O)OCC(=O)N(C)CC(=O)Nc2ccc(F)cc2)cc1C,active: 38.3%
10,O=C(NC1CCN(Cc2ccc3ccccc3c2)CC1)c1ccccc1,active: 50.9%
11,COc1ccc(N2CCN(C(=O)CCS(=O)(=O)c3cc(Br)cc4c3N(C(=O)C3CC3)CC4)CC2)cc1,-4.3%
12,COc1ccc(NC(=O)Nc2nnc(N3CCCCCC3)s2)c(OC)c1,20.1%
13,COc1ccc(NC(=O)CN2C(=O)COc3ccc(S(=O)(=O)N4CCOCC4)cc32)cc1Cl,11.6%
14,O=C(Nc1ccc(NC(=O)c2cccs2)cc1)c1ccc2c(c1)OCCO2,active: 34.2%
15,CCOC(=O)CNC(=O)c1cn(CC(C)C)c(=O)c2cc(OC)c(OC)cc12,active: 31.2%
16,CCOc1ccc(N(CC)S(=O)(=O)N2CCCC(C(=O)NCc3ccc(SC)cc3)C2)cc1 (stereo not given),-13.8%
17,COc1cccc(CNC(=O)NCc2noc3ccc(C)cc23)c1,-7.05%
18,COc1ccc(NC(=O)c2cc(C3CC3)nc3c2c(C)nn3-c2ccc(C)cc2)cc1OC,-0.27%
19,CN(C)c1ccc(CNC(=O)C2CCN(S(=O)(=O)c3cn(C)cn3)CC2)cc1,-1.68%
20,COc1ccccc1CNC(=O)c1oc2c(c1C)-c1nn(Cc3ccc(Cl)cc3)cc1CC2,18.5%
21,Cc1ccc(C)c(CN2C(=O)c3ccccc3S(=O)c3ccc(C(=O)NCCc4ccc(Cl)cc4)cc32)c1 (stereo not given),18.1%
22,COc1ccc(NC(=O)c2sc3nc(-c4cc5cccc(OC)c5oc4=O)[nH]c(=O)c3c2C)cc1,-15.9%
23,Cc1c(NS(C)(=O)=O)cccc1-c1nc2ccccc2s1,12.4%
24,COc1ccccc1-c1cc(C(F)(F)F)nc(S(=O)(=O)CCCC(=O)Nc2ccc(F)c(Cl)c2)n1,2.9%

row,SMILES,inhibition
1,COc1ccc(C(=O)N2CCC(c3c[nH]c4ccccc34)(c3c[nH]c4ccccc34)CC2)cc1,5.86%
2,COc1ccc(C(=O)NCCSc2c(C)[nH]c3ccccc23)cc1,4.99%
3,CCCCN(CC)CCCNC(=S)Nc1ccc2nc(N3CCN(C)CC3)cc(C)c2c1,active: 39.6%
4,COCCn1ccc2c(OCC(=O)NCc3ccc(F)cc3)cccc2c1=O,3.77%
5,Cc1ccc(NC(=O)Nc2nnc(SCC(=O)N3CCC(C)CC3)s2)cc1,27.2%
6,O=c1c2cc3c(nc2ncn1Cc1ccccc1F)CCCC3,0.445%
7,CCOC(=O)c1cnc2c(ccc3ccccc32)c1Nc1ccc(OC)c(OC)c1,7.18%
8,Cc1cccc(C2C=C(c3ccc(F)cc3)Nc3nc4ccccc4n32)c1 (stereo not given),3.77%
9,CCOc1ccc(NS(=O)(=O)c2cc(NC(=O)CCS(=O)(=O)c3ccc(C)cc3)ccc2OC)cc1,active: 32.9%
10,CCOc1ccc(Cn2c(CNS(=O)(=O)c3ccc([N+](=O)[O-])cc3)nc3cccnc32)cc1,6.1%
11,CCN1CCN(c2cc(C)c3cc(NC(=O)/C=C/c4cccc(Cl)c4)ccc3n2)CC1,-0.818%
12,Cc1ccc(NC(=O)Cn2cc(S(=O)(=O)N3CCCC3)c(S(=O)(=O)N3CCCC3)c2)cc1C,5.88%
13,CCOc1ccc(NC(=O)c2ccc(-c3cccc(Cl)c3C)o2)cc1,1.11%
14,O=C(O)/C(=C/c1ccco1)NC(=O)c1ccccc1,active: 33.7%
15,COc1ccc(-n2cc(C(=O)NC(C)c3ccccc3)c3ccccc3c2=O)cc1 (stereo not given),-11.1%
16,O=C(NC1CCCC1)c1ccc(CSc2nc3ccncc3n2Cc2ccc(F)cc2)cc1,-4.35%
17,CCOc1ccccc1CN(CCc1ccc2c(c1)OCO2)Cc1cccc(OC)c1OC,-6.4%
18,CN(C)c1ccc(NC(=O)CSC2=Nc3ccccc3C3=NC(CC(=O)NCc4ccccc4)C(=O)N23)cc1 (stereo not given),-16.3%
19,CCOC(=O)c1c(C)[nH]c(CCC(=O)NCc2ccccc2C)c1C,-6.16%
20,CCN1CCC(N(Cc2ccc3c(c2)OCO3)C(=O)Nc2ccccc2OC)CC1,1.28%
21,COc1cccc(C2CC(=O)N3CN(C4CCCCC4)CSC3=C2C#N)c1 (stereo not given),11%
22,COc1cc(NC(=O)C(CCS(C)(=O)=O)N2Cc3ccccc3C2=O)cc(OC)c1OC (stereo not given),2.79%
23,CC1CN(C(=O)N2CCC(C(=O)NC3CCCCCC3)CC2)c2ccccc2O1 (stereo not given),-13.4%
24,COc1cccc(NC(=O)c2cc3c(=O)n(Cc4cccnc4)ccc3nc2C)c1,6%

row,SMILES,inhibition
1,Cc1n[nH]c(=S)n1/N=C/c1ccc(OCc2ccc(Cl)cc2Cl)cc1,active: 31.3%
2,Cc1ccc(-c2nc(S(=O)(=O)c3ccc(C)cc3)c(SCC(=O)NC3CCCCC3)o2)cc1,6.29%
3,COc1ccccc1CNC(=O)CCC1N=C2c3ccccc3N=C(SCC(=O)NCCc3ccc(OC)c(OC)c3)N2C1=O (stereo not given),12.3%
4,COc1cc(NS(=O)(=O)c2ccc3oc(=O)c4ncn(C)c4c3c2)cc(OC)c1,-2.24%
5,CCc1ccc(-c2cc(C)no2)cc1S(=O)(=O)Nc1ccc(Cl)cc1,-2.6%
6,COc1cc(C(=O)OC(C)C(=O)N2CCCC2)cc2c1OCCO2 (stereo not given),active: 67.1%
7,CCOc1ccc(C(=O)Nc2ccccc2NC(C)=O)cc1OCC,active: 103%
8,COc1ccc(-c2noc(-c3ccc(NC(C)c4ccccc4)c([N+](=O)[O-])c3)n2)cc1OC (stereo not given),25.5%
9,Cc1ccc(-c2nn3c(-c4ccc(C)cc4)nnc3c3ccccc23)cc1,-1.6%
10,COc1ccccc1-n1c(SCC(=O)Nc2ccc(C)cc2)nc(O)cc1=O,15.6%
11,COc1cc(NC(=O)c2ccc3c(c2)OCO3)ccc1NC(=O)C(C)C,active: 64.3%
12,COc1cc(CN(C(=O)c2oc3ccccc3c2C)C2CCS(=O)(=O)C2)cc(OC)c1OC (stereo not given),0.357%
13,CC(=O)Nc1ccc(S(=O)(=O)NCCc2csc3nc(-c4cccc(C)c4)nn23)cc1,-15.4%
14,O=C(c1ccco1)n1nc(-c2ccccc2)nc1NCc1ccccc1Cl,5.71%
15,Cc1ccc(N(Cc2cccs2)C(=O)COc2ccccc2[N+](=O)[O-])cc1,13.9%
16,O=C(NCc1ccccc1Cl)C1CCC(CNS(=O)(=O)c2ccc(Br)s2)CC1 (stereo not given),-3.23%
17,Cc1cccc(-c2nc(Cn3c(SCc4cc(C)ccc4C)nc4ccncc43)c(C)o2)c1,-8.08%
18,O=C(NCc1ccccc1)C(=O)NCC(c1cccnc1)N1CCN(c2ccccc2)CC1 (stereo not given),11.9%
19,CCOC(=O)C1CCCN(C(=O)c2cc(Cl)ccc2Cl)C1 (stereo not given),active: 30.8%
20,COc1ccccc1N(CC(O)Cn1ccnc1C)S(=O)(=O)c1ccc(C)cc1 (stereo not given),active: 67.2%
21,CCc1cccc(NC(=O)CN2C=NS(=O)(=O)c3ccccc32)c1,9.32%
22,Cc1ccc(NC(=O)CCc2c(C)nc3nc(C)nn3c2C)c(Cl)c1,-6.22%
23,Cc1ccc(C)n1-c1nnc(N2CCCC(C(=O)NCc3ccccc3)C2)s1 (stereo not given),8.25%
